Measurements taken from paper PMC9303311 (Nucleic Acids Research, 2022).

Assays:
[1] = target: the molecule itself; assay: cross-linking
[2] = target: the molecule itself; assay: cross-linking; remark: listed apart in the source

B1: Human SAMHD1 T592E (phosphomimetic variant), full length (enzyme)
chain: not shown
- half-life of tetramer dissociation [1]: ~8.8 min
- stoichiometry N [1]: 4
- half-life of tetramer dissociation with ssDNA [2]: 1.6 min

B2: Human SAMHD1 Δ[…] (C-terminal truncation lacking Thr592) (domain or fragment)
chain: not shown
- half-life of tetramer dissociation [1]: ~4.2 min
- stoichiometry N [1]: 4

B3: Human SAMHD1 Δ[…] (C-terminal truncation retaining Thr592) (domain or fragment)
chain: not shown
- half-life of tetramer dissociation [1]: 260 min
- stoichiometry N [1]: 4
